# Results as given in PubChem BioAssay AID624417 (National Center for Advancing Translational Sciences (NCATS), 2012).
# In all, about 410,000 compounds went through this assay and about 6,400 (1.6%) were called active. The shares of active, inactive and inconclusive entries below differ from those in the screen. Calls come from the whole dose curve; as a rule, active = well fitted inhibition curve with a large enough effect; inconclusive = small, poorly fitted or top-dose-only effect; inactive = no such curve, though single readings can be large or run the other way. Potencies of inconclusive entries are left out as doubtful fits.
# Biological target: Glucagon-like peptide 1 receptor (Homo sapiens) (UniProt P43220)
# Chain of UniProt P43220 (P43220 whole entry, looked up): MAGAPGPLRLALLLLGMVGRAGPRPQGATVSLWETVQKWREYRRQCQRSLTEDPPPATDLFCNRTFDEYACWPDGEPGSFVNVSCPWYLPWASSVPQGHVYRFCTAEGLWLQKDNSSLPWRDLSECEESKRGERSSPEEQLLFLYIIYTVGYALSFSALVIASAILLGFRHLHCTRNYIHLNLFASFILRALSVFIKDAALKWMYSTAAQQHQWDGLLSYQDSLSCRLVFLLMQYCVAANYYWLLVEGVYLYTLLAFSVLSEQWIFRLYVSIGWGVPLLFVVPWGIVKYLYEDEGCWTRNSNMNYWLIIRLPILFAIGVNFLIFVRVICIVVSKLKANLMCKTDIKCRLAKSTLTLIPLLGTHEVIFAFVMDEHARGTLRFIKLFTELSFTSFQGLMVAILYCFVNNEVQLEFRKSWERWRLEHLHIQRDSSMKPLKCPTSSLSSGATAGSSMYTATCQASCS
# Assay: qHTS of GLP-1 Receptor Inverse Agonists (Inhibition Mode); note: nearly all actives have a fitted effect of over 55% in size
# Conditions: HEK293 GLP-1R CRE-luciferase, luminescence, 24 h, GLP-1R form is constitutively active; activity change, negative = inhibition: at 38.3 µM (top of the series) unless noted
# Procedure, shortened: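 qHTS in 1536-well format: reporter HEK293 cells expressing constitutive GLP-1R activity in DMEM + 10% Nu serum, 24 hr with compounds at 37 deg C, luminescence read after 12 min with detection reagent.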
# % is set by controls: 0 for no effect and ±100 for the full control effect; potency is the fitted concentration of half-maximal effect; tags give direction and shape of the fitted curve.
Compound,Potency,"activity change, negative = inhibition"
C[C@@H]1CCCCO[C@@H](CN(C)C(=O)C2CCCCC2)[C@@H](C)CN([C@H](C)CO)C(=O)c2cc(NC(=O)NC3CCCCC3)ccc2O1,"inconclusive [inhibitor, partial curve, poor fit]",–
CCOc1ccc(C=NNc2ccc(S(=O)(=O)Nc3ccccc3C(=O)O)cc2[N+](=O)[O-])cc1OC,–,inactive: 2.78%
Cc1ccccc1S(=O)(=O)N1C(c2ccc(Cl)c(Cl)c2)CC=C(C(=O)O)C1c1cccc(Br)c1 (configuration not stated),active: 10 µM,–
COc1ccc(S(=O)(=O)N2CCCCCC2)cc1NC(=O)Cc1ccccc1F,"inconclusive [inhibitor, single point]",–
O=C(NC1CCCN(Cc2ccc(Cl)cc2)C1)c1cnc2ccccn2c1=O (configuration not stated),"inconclusive [inhibitor, single point]",–
CCOc1ccc2nc(NC(=O)CS(=O)(=O)c3ccc(Cl)cc3)sc2c1,"inconclusive [inhibitor, full curve, poor fit]",–
O=C(Nc1ccc(Cl)cc1)Nc1nnc(-c2ccncc2)s1,–,inactive: -0.157%
CCOc1ccc(C(Nc2ccc(C)cc2)P2(=O)OCC(C)(C)CO2)cc1 (configuration not stated),"inconclusive [inhibitor, partial curve, poor fit]",–
O=C(c1ccc(N2CCCC2=O)cc1)N1CCN(c2ccc(C(F)(F)F)cc2[N+](=O)[O-])CC1,"inconclusive [inhibitor, partial curve, poor fit]",–
OCCN(Cc1ccccc1)C(=S)NC1CCCCC1,"inconclusive [inhibitor, single point]",–
CC(Oc1ccc(Cl)cc1Cl)C(=O)NNC(=O)c1cccnc1 (configuration not stated),"inconclusive [inhibitor, single point]",–
Oc1c(Br)cccc1/C=N/Nc1c(F)c(F)c(F)c(F)c1F,–,inactive: -25.4%
CCOC(=O)c1ccc(NC(=O)C2CCCN(c3ccc(Sc4ccc(C)cc4)nn3)C2)cc1 (configuration not stated),–,inactive: -11.5%
c1ccc(CN2CCN(c3nc4ccccc4c4ccccc34)CC2)cc1,"inconclusive [inhibitor, single point]",–
O=[N+]([O-])c1ccc(S(=O)(=O)c2cccc(C(F)(F)F)c2)nc1,"inconclusive [inhibitor, single point]",–
CCN(C(=O)CN(C)S(=O)(=O)c1ccc2c(c1)c(=O)n(C)c(=O)n2C)c1ccc(OC)cc1,–,inactive: 3.75%
Fc1cccc(F)c1/C=N/Nc1ccccn1,"inconclusive [inhibitor, single point]",–
Cc1ccc(Oc2ccc(NC(=O)c3ccco3)cc2)cc1,"inconclusive [inhibitor, single point]",–
O=S(=O)(NCC1CCCO1)c1ccc(Cl)c2ccccc12 (configuration not stated),"inconclusive [inhibitor, partial curve, poor fit]",–
CCOP(=O)(OCC)c1nc(/C=C/c2ccccc2)oc1NCc1ccc(OC)cc1,"inconclusive [inhibitor, single point]",–
COc1cc(CN(CC2CCCO2)C(=O)c2ccc(F)cc2)cc(OC)c1OC (configuration not stated),–,inactive: 1.64%

Compound,Potency,"activity change, negative = inhibition"
COc1ccc(-n2c(C)cc(-c3csc(NC(=O)c4ccc(S(=O)(=O)N(C)C)cc4)n3)c2C)cc1,–,inactive: 28.9%
COc1ccccc1NCC(=O)NNCC(=O)Nc1ccc(F)c(Cl)c1,"inconclusive [inhibitor, single point]",–
CCOc1cccc(CC(=O)Nc2ccc3nc(N4CCCCC4)cc(C)c3c2)c1OCC,"inconclusive [inhibitor, single point]",–
Cc1ccc(S(=O)(=O)N(C)C[C@@H]2OCc3cnnn3CCCC(=O)N([C@H](C)CO)C[C@H]2C)cc1,–,inactive: -3.21%
Cc1ccc(N2C(=O)N(CC(=O)Nc3ccc(C)cc3C)C(=O)C2C)cc1 (configuration not stated),"inconclusive [inhibitor, single point]",–
CCC(C)[C@H]1CNCCN1CCc1cc(C(F)(F)F)cc(C(F)(F)F)c1 (some centres not stated),"inconclusive [inhibitor, single point]",–
CCC1Sc2ccc(S(=O)(=O)CCC(=O)Nc3ccccc3Cl)cc2NC1=O (configuration not stated),"inconclusive [inhibitor, single point]",–
CC(=O)Nc1cccc(Oc2nc(NC(C)C)nc3cc(-c4ccccc4)sc23)c1,"inconclusive [inhibitor, partial curve, poor fit]",–
CCCOC(=O)c1ccc(Oc2c(-c3ccc(O)cc3O)n[nH]c2C)cc1,"inconclusive [inhibitor, single point]",–
Cc1cccc(N2CCN(C(=O)CSCc3ccc(F)cc3)CC2)c1C,"inconclusive [inhibitor, single point]",–
CCCCN(C)C(=O)C1CCCN(c2ncnc3onc(-c4ccc(F)cc4)c23)C1 (configuration not stated),–,inactive: -30.6%
COc1ccc(N2C(S)=C(C#N)C(=O)NC2c2ccco2)cc1 (configuration not stated),–,inactive: 12.8%
O=[N+]([O-])c1cccc(COc2ccc(CN3CCOCC3)cc2)c1,"inconclusive [inhibitor, single point]",–
CC(C(=O)N1CCc2ccccc21)N(C)CC(=O)Nc1ccccc1Cl (configuration not stated),"inconclusive [inhibitor, single point]",–
COc1ccc(N2C(=O)CCC(C(=O)N3CCCCC3)C2c2ccc(F)cc2)cc1 (configuration not stated),"inconclusive [inhibitor, single point]",–
O=C(CNC(=O)c1ccccc1Br)NCCSc1ccc(Br)cc1,"inconclusive [inhibitor, single point]",–
COC(=O)c1c(C)cc(O)cc1O,–,inactive: 14.5%
CC1CCN(C2=C(NS(=O)(=O)c3ccc(Br)cc3)C(=O)c3ccccc3C2=O)CC1,"inconclusive [inhibitor, single point]",–
Cc1nn(C)cc1/C=N/NC(=S)Nc1ccccc1,–,inactive: 0%
C=CCc1cccc(/C=N/NC(=O)CCC(=O)Nc2ccc(F)cc2)c1O,"inconclusive [inhibitor, partial curve, poor fit]",–
Cc1ccc(CNC(=O)Cc2coc3cc(C)cc(C)c23)cc1,–,inactive: 7.67%
